{
  "source": "the supplement of paper PMC12217912",
  "parents": {"B1": {"name": "TEV protease; numbered along this chain (parent)", "chain": "MGESLFKGPRDYNPISSSICHLTNESDGHTTSLYGIGFGPFIITNKHLFRRNNGTLVVQSLHGVFKVKDTTTLQQHLVDGRDMIIIRMPKDFPPFPQKLKFREPQREERICLVTTNFQTKSMSSMVSDTSCTFPSGDGIFWKHWIQTKDGQCGSPLVSTRDGFIVGIHSASNFTNTNNYFTSVPKNFMELLTNQEAQQWVSGWRLNADSVLWGGHKVFMVKPEEPFQPVKEATQL"}},
  "note": "Some of the results follow. Sequences were assembled here from the parent chain. Values near 0.05 are background.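 Also: Bxb1 expression induced with 0.2% (w/v) L-rhamnose at OD600 near 0.5, cultures sampled hourly, flipped fraction per protease–substrate barcode pair counted by paired-end Illumina sequencing.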",
  "data": [
    {"variants_of": "B1", "assay": "raw area under fraction-flipped curve 0-4 h after induction (AUC4h, not background-subtracted), DNA-recorder readout of cleavage of the substrate (dimensionless); higher = more cleavage of the substrate by the protease variant", "details": "temperature: 34 °C; time window: 0-4 h after rhamnose induction", "values": [
      {"variant": "E231K", "area with substrate ECLYFQS": 0.102, "area with substrate EELYFQS": 0.144, "area with substrate EPLYFQS": 0.135, "area with substrate EQLYFQS": 0.119, "area with substrate ERLYFQS": 0.122, "area with substrate EVLYFQS": 0.0958},
      {"variant": "E231Y", "area with substrate ECLYFQS": 0.0741, "area with substrate EDLYFQS": 0.105, "area with substrate EGLYFQS": 0.0912, "area with substrate EILYFQS": 0.0916, "area with substrate ELLYFQS": 0.086, "area with substrate EMLYFQS": 0.136, "area with substrate EPLYFQS": 0.0753, "area with substrate EQLYFQS": 0.0791, "area with substrate ERLYFQS": 0.0866, "area with substrate EVLYFQS": 0.076, "area with substrate EWLYFQS": 0.0787, "area with substrate EYLYFQS": 0.0796},
      {"variant": "L190V", "area with substrate EDLYFQS": 0.117, "area with substrate EELYFQS": 0.175, "area with substrate EHLYFQS": 0.125, "area with substrate EKLYFQS": 0.0667, "area with substrate EPLYFQS": 0.129, "area with substrate EQLYFQS": 0.14, "area with substrate ESLYFQS": 0.121, "area with substrate ETLYFQS": 0.127, "area with substrate EVLYFQS": 0.065, "area with substrate EWLYFQS": 0.095, "area with substrate EYLYFQS": 0.106},
      {"variant": "L190I", "area with substrate ECLYFQS": 0.0986, "area with substrate EDLYFQS": 0.14, "area with substrate EGLYFQS": 0.11, "area with substrate ELLYFQS": 0.0953, "area with substrate EPLYFQS": 0.132, "area with substrate ESLYFQS": 0.088, "area with substrate EVLYFQS": 0.0496, "area with substrate EWLYFQS": 0.0934, "area with substrate EYLYFQS": 0.116},
      {"variant": "L190K", "area with substrate ECLYFQS": 0.091, "area with substrate EDLYFQS": 0.126, "area with substrate EELYFQS": 0.156, "area with substrate EGLYFQS": 0.0637, "area with substrate EHLYFQS": 0.0831, "area with substrate EILYFQS": 0.0669, "area with substrate EKLYFQS": 0.0979, "area with substrate ELLYFQS": 0.0884, "area with substrate EMLYFQS": 0.134, "area with substrate EPLYFQS": 0.0902, "area with substrate ERLYFQS": 0.0868, "area with substrate ESLYFQS": 0.103, "area with substrate ETLYFQS": 0.145, "area with substrate EVLYFQS": 0.0894, "area with substrate EWLYFQS": 0.0771},
      {"variant": "G213E", "area with substrate ECLYFQS": 0.0596, "area with substrate EFLYFQS": 0.0697, "area with substrate EGLYFQS": 0.0767, "area with substrate EQLYFQS": 0.0642, "area with substrate ESLYFQS": 0.0714, "area with substrate ETLYFQS": 0.0651, "area with substrate EYLYFQS": 0.057},
      {"variant": "G213P", "area with substrate ECLYFQS": 0.071, "area with substrate EFLYFQS": 0.0638, "area with substrate EHLYFQS": 0.0623, "area with substrate EILYFQS": 0.0768, "area with substrate EPLYFQS": 0.0611, "area with substrate EQLYFQS": 0.0507, "area with substrate ERLYFQS": 0.0622},
      {"variant": "G213I", "area with substrate ECLYFQS": 0.0502, "area with substrate EDLYFQS": 0.0826, "area with substrate EELYFQS": 0.0632, "area with substrate EFLYFQS": 0.0559, "area with substrate EGLYFQS": 0.0577, "area with substrate EILYFQS": 0.0394, "area with substrate EMLYFQS": 0.0807, "area with substrate EPLYFQS": 0.0488, "area with substrate EQLYFQS": 0.0553, "area with substrate ESLYFQS": 0.0464, "area with substrate ETLYFQS": 0.0526, "area with substrate EWLYFQS": 0.0471},
      {"variant": "F6C", "area with substrate EDLYFQS": 0.0863, "area with substrate EGLYFQS": 0.07, "area with substrate EPLYFQS": 0.0959, "area with substrate EVLYFQS": 0.0754},
      {"variant": "P96D", "area with substrate EDLYFQS": 0.122, "area with substrate EELYFQS": 0.174, "area with substrate EGLYFQS": 0.092, "area with substrate EHLYFQS": 0.0853, "area with substrate EILYFQS": 0.105, "area with substrate EKLYFQS": 0.117, "area with substrate EQLYFQS": 0.131, "area with substrate ESLYFQS": 0.111, "area with substrate EVLYFQS": 0.124, "area with substrate EWLYFQS": 0.0972, "area with substrate EYLYFQS": 0.118},
      {"variant": "V220F", "area with substrate ECLYFQS": 0.101, "area with substrate EDLYFQS": 0.102, "area with substrate EELYFQS": 0.121, "area with substrate EFLYFQS": 0.103, "area with substrate EGLYFQS": 0.099, "area with substrate EHLYFQS": 0.119, "area with substrate ELLYFQS": 0.0819, "area with substrate EMLYFQS": 0.0984, "area with substrate EQLYFQS": 0.125, "area with substrate ERLYFQS": 0.123, "area with substrate ESLYFQS": 0.103, "area with substrate ETLYFQS": 0.0949, "area with substrate EVLYFQS": 0.14},
      {"variant": "V220K", "area with substrate ECLYFQS": 0.095, "area with substrate EELYFQS": 0.119, "area with substrate EFLYFQS": 0.123, "area with substrate EHLYFQS": 0.0984, "area with substrate EKLYFQS": 0.109, "area with substrate ELLYFQS": 0.107, "area with substrate EPLYFQS": 0.144, "area with substrate EQLYFQS": 0.12, "area with substrate ERLYFQS": 0.127, "area with substrate ESLYFQS": 0.0895, "area with substrate EWLYFQS": 0.0797, "area with substrate EYLYFQS": 0.0944},
      {"variant": "T129A", "area with substrate EELYFQS": 0.132, "area with substrate EFLYFQS": 0.0999, "area with substrate EILYFQS": 0.0952, "area with substrate EKLYFQS": 0.0801, "area with substrate ELLYFQS": 0.0891, "area with substrate EMLYFQS": 0.0887, "area with substrate EQLYFQS": 0.116, "area with substrate ERLYFQS": 0.0985, "area with substrate ETLYFQS": 0.0886, "area with substrate EWLYFQS": 0.0801},
      {"variant": "T181Q", "area with substrate ECLYFQS": 0.0605, "area with substrate EILYFQS": 0.066, "area with substrate EKLYFQS": 0.0132, "area with substrate ELLYFQS": 0.0573, "area with substrate EQLYFQS": 0.0545, "area with substrate ERLYFQS": 0.069, "area with substrate ESLYFQS": 0.0638},
      {"variant": "T181N", "area with substrate ECLYFQS": 0.0684, "area with substrate EDLYFQS": 0.0806, "area with substrate EHLYFQS": 0.0496, "area with substrate EILYFQS": 0.0556, "area with substrate EKLYFQS": 0.0728, "area with substrate EPLYFQS": 0.0823, "area with substrate ERLYFQS": 0.0689, "area with substrate ESLYFQS": 0.0776, "area with substrate EVLYFQS": 0.0727},
      {"variant": "P89K", "area with substrate EDLYFQS": 0.0931, "area with substrate EFLYFQS": 0.0889, "area with substrate EILYFQS": 0.0758, "area with substrate EKLYFQS": 0.0777, "area with substrate EPLYFQS": 0.0693, "area with substrate ERLYFQS": 0.0772, "area with substrate ESLYFQS": 0.0743, "area with substrate EVLYFQS": 0.101},
      {"variant": "P89I", "area with substrate EELYFQS": 0.0983, "area with substrate EGLYFQS": 0.0867, "area with substrate EILYFQS": 0.0654, "area with substrate EPLYFQS": 0.0631, "area with substrate ERLYFQS": 0.0619, "area with substrate ESLYFQS": 0.0789, "area with substrate EVLYFQS": 0.0455},
      {"variant": "S171W", "area with substrate EDLYFQS": 0.0659, "area with substrate EILYFQS": 0.0682, "area with substrate EMLYFQS": 0.0587, "area with substrate EQLYFQS": 0.0489, "area with substrate ESLYFQS": 0.0687, "area with substrate ETLYFQS": 0.0461, "area with substrate EWLYFQS": 0.0633}
    ]}
  ]
}
